Experimental data taken from the supplement of paper PMC4967469.
Lines with a small IC50 respond at low doses; fits outside the tested doses are given as limits. For AUC the same curve is integrated over the 256-fold range of doses and scaled to a fraction; values near 1 show little effect. The top dose, if marked as inferred, was calculated from the reported fits.

Legend:
Assay in all cases: Viability of human cancer cell lines after 72 h of drug (GDSC screen)
CCT007093 = compound: O=C1/C(=C/c2cccs2)CC/C1=C\c1cccs1 [CCT007093]; conditions: top dose 6.6 µM; top dose inferred
Protocol: (§1)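 Human cancer cell lines in 384-well plates, medium with 10% serum, drug for 72 h over a 256-fold dose range (nine 2-fold or five 4-fold steps up to the top dose). Adherent lines were fixed and stained with the nucleic acid dye Syto60, suspension lines read with resazurin; signal relative to control wells, capped at 0 and 100%. One two-parameter sigmoid per drug and line, fitted in a mixed model over all curves with the slope shared within a line.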

BAY 61-3606 = compound: COc1ccc(-c2cc3nccn3c(Nc3ncccc3C(N)=O)n2)cc1OC [BAY 61-3606]; conditions: top dose 8 µM; top dose inferred
Protocol: as §1

KIN001-266 = compound: CCN1CCC(n2cc(CNc3cc(Cl)c4ncc(C#N)c(Nc5ccc(F)c(Cl)c5)c4c3)nn2)CC1 [KIN001-266]; conditions: top dose 20 µM; top dose inferred
Protocol: as §1

QL-XII-47 = compound: C=CC(=O)N1CCc2ccc(-n3c(=O)ccc4cnc5ccc(-c6cnn(C)c6)cc5c43)cc21 [QL-XII-47]; conditions: top dose 10.24 µM; top dose inferred
Protocol: as §1

Cell Line	AUC (CCT007093)	IC50 (CCT007093) [µM]	AUC (BAY 61-3606)	IC50 (BAY 61-3606) [µM]	AUC (KIN001-266)	IC50 (KIN001-266) [µM]	AUC (QL-XII-47)	IC50 (QL-XII-47) [µM]
EHEB (lymphoid neoplasm, suspension)	0.968	> 6.6	0.751	3.76	–	–	–	–
G-361 (melanoma, adherent)	0.97	> 6.6	0.741	2.36	0.863	16.1	–	–
H290 (mesothelioma, adherent)	0.989	> 6.6	0.65	1.25	–	–	0.751	3.12
IM-9 (myeloma, suspension)	0.992	> 6.6	0.883	6.53	–	–	–	–
IST-SL2 (small cell lung carcinoma, suspension)	0.986	> 6.6	0.691	1.71	–	–	0.552	0.887
JHU-029 (head and neck, adherent)	0.972	> 6.6	0.778	4.04	–	–	–	–
KARPAS-231 (B-cell leukaemia, suspension)	0.992	> 6.6	0.695	1.52	–	–	–	–
KOSC-2 (head and neck, adherent)	0.947	> 6.6	0.985	> 8	0.967	> 20	–	–
KP-1N (pancreas, adherent)	0.986	> 6.6	0.801	4.14	–	–	0.459	0.493
LB647-SCLC (small cell lung carcinoma, semi-adherent)	0.983	> 6.6	0.912	> 8	–	–	0.348	0.229
NB1 (neuroblastoma, semi-adherent)	0.981	> 6.6	0.697	1.91	0.824	13.6	–	–
NB13 (neuroblastoma, adherent)	–	–	0.794	3.21	0.758	6.23	0.692	2.06
NCI-H716 (large intestine, suspension)	–	–	0.932	> 8	0.86	> 20	0.728	3.42
NCI-H748 (small cell lung carcinoma, suspension)	–	–	0.959	> 8	0.838	19.3	0.484	0.571
NCI-H810 (large cell lung carcinoma, adherent)	–	–	0.797	3.59	0.853	14.6	0.333	0.224
NCI-H1838 (lung adenocarcinoma, adherent)	–	–	0.951	> 8	0.937	> 20	0.927	> 10.2
NCI-H1963 (small cell lung carcinoma, suspension)	0.991	> 6.6	0.89	7.15	0.99	> 20	–	–
NCI-H2171 (small cell lung carcinoma, suspension)	–	–	0.863	5.48	0.945	> 20	0.354	0.268
NCI-H2196 (small cell lung carcinoma, adherent)	–	–	0.865	7.72	0.813	11.5	0.727	2.93
NCI-H2228 (lung adenocarcinoma, adherent)	–	–	0.808	7.05	0.875	> 20	0.791	7.5

Cell Line	AUC (CCT007093)	IC50 (CCT007093) [µM]	AUC (BAY 61-3606)	IC50 (BAY 61-3606) [µM]	AUC (KIN001-266)	IC50 (KIN001-266) [µM]	AUC (QL-XII-47)	IC50 (QL-XII-47) [µM]
NCI-H2342 (lung adenocarcinoma, adherent)	–	–	0.691	1.83	0.905	> 20	0.872	> 10.2
NU-DUL-1 (B-cell lymphoma, suspension)	–	–	0.721	1.82	0.706	4.14	0.568	0.942
PL-21 (acute myeloid leukaemia, suspension)	–	–	0.612	1.07	0.832	15.8	0.616	1.41
RMG-I (ovary, adherent)	–	–	0.917	> 8	0.772	9.06	0.583	1.12
SCC90 (head and neck, adherent)	0.981	> 6.6	0.951	> 8	–	–	0.785	6.53
SCC-3 (B-cell lymphoma, suspension)	–	–	0.931	6.66	0.905	13.5	0.489	0.602
SIG-M5 (acute myeloid leukaemia, suspension)	–	–	0.614	0.947	0.714	4.18	0.294	0.2
SISO (cervix, adherent)	–	–	0.888	> 8	0.935	> 20	0.549	0.864
SNU-475 (liver, adherent)	–	–	0.949	> 8	0.859	13.6	0.918	> 10.2
SNU-C2B (large intestine, adherent)	–	–	0.682	1.91	0.865	> 20	0.724	3.46
STS-0421 (soft tissue, adherent)	0.983	> 6.6	0.777	3.76	–	–	0.728	3.23
SU-DHL-1 (anaplastic large cell lymphoma, suspension)	–	–	0.997	> 8	0.915	14.3	0.558	0.886
SU-DHL-8 (B-cell lymphoma, suspension)	–	–	0.758	2.61	0.81	9.67	0.27	0.15
SU-DHL-16 (B-cell lymphoma, suspension)	0.981	> 6.6	0.62	0.976	0.903	13.4	–	–
SW756 (cervix, adherent)	–	–	0.958	> 8	0.984	> 20	0.978	> 10.2
TALL-1 (T-cell lymphoblastic leukaemia, suspension)	–	–	0.975	> 8	0.877	18.4	0.838	6.45
TE-441-T (rhabdomyosarcoma, adherent)	–	–	0.818	4.3	0.876	18.5	0.701	2.3
UACC-812 (breast, adherent)	–	–	0.991	> 8	0.942	> 20	0.813	5.3
VMRC-RCW (kidney, adherent)	–	–	0.932	> 8	0.864	15.4	0.476	0.554
